Assay results: PubChem BioAssay AID1347165 (National Center for Advancing Translational Sciences (NCATS), 2019)
Screen size: about 220,000 compounds; about 5,700 (2.6%) were called active. This list was built around the results that the source calls inconclusive (neither active nor inactive); the mix of calls is not that of the screen. Calls come from the whole dose curve; as a rule, active = well fitted inhibition curve with a large enough effect; inconclusive = small, poorly fitted or top-dose-only effect; inactive = no such curve, though single readings can be large or run the other way. A potency beside an inconclusive call is a rough fit, not a confirmed value.

What follows are compounds tested against Lysine-specific demethylase 5B (Homo sapiens) (UniProt Q9UGL1) (assay: Primary screen for KDM5B Histone Demethylases FDH-coupled qHTS). Conditions: FDH-coupled NADH fluorescence (FDH is formaldehyde dehydrogenase); activity change, negative = inhibition: at 57.7 µM (top of the series) unless noted.
UniProt Q9UGL1, sequence (Q9UGL1 whole entry, looked up): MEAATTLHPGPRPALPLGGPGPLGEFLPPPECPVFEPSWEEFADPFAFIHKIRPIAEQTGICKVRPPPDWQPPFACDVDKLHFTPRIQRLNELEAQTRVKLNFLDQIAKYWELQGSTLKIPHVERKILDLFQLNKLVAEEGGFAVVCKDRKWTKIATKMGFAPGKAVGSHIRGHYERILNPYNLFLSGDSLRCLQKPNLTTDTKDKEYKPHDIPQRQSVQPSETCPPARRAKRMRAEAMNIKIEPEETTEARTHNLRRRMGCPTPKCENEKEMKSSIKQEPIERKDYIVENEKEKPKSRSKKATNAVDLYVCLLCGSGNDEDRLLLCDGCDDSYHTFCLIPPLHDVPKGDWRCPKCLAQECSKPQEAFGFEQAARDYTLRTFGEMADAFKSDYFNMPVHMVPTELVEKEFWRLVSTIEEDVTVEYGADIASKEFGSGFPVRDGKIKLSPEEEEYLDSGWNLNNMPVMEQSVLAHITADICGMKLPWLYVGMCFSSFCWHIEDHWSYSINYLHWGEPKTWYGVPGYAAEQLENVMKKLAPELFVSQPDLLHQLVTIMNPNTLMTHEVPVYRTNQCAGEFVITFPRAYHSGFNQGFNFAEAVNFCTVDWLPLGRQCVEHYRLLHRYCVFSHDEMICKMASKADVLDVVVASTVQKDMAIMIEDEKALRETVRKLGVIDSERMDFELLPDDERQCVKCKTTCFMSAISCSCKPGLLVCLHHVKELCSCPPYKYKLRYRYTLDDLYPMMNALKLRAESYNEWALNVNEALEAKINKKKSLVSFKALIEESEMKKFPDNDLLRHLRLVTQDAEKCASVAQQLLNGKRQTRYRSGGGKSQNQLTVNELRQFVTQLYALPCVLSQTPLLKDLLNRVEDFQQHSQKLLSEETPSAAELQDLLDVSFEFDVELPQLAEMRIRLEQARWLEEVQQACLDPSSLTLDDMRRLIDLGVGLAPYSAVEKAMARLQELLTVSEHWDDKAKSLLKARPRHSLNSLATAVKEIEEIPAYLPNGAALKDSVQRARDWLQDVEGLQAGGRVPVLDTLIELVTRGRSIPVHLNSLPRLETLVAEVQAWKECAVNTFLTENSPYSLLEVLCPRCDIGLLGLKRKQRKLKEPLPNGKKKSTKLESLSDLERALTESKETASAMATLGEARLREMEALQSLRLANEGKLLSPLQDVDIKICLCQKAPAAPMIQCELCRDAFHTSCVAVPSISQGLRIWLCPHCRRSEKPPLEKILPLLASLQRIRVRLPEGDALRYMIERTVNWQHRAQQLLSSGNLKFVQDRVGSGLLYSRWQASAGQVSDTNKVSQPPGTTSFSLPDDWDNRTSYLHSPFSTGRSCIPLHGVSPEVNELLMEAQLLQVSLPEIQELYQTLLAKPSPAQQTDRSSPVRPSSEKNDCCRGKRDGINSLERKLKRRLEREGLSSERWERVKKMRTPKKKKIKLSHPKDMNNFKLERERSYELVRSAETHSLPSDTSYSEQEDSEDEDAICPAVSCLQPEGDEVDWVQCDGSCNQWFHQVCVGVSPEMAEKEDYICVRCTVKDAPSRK
How it was run: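 Compound dilutions met 200 nM (final) KDM5BΔAP for 10 min at room temperature before substrate addition. The substrate mix held 12.5 µM H3K4me3 with cofactors 25 µM α-ketoglutarate and 50 µM Fe²⁺. NADH signal gain over 30 min defined activity.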
Note: nearly all actives have a fitted effect of over 70% in size.
Potency is the fitted concentration of half-maximal effect; tags give direction and shape of the fitted curve.
Throughout, for activity change, negative = inhibition: 0% is about no effect.

Structure (SMILES)	Potency	activity change, negative = inhibition
COC(=O)C1=CN(C(C)C)C=C(C(=O)OC)C1c1cccs1	inconclusive: 20 µM [inhibitor, partial curve, poor fit]	
O=C(CSCc1ccc(F)cc1)N1CCN(c2ccc(Cl)cc2)CC1	inconclusive: 14.1 µM [inhibitor, partial curve, poor fit]	
CCNC(=O)N[C@@H]1C=C[C@@H](c2c(C)nn(-c3ccc(C(F)(F)F)cc3)c2C)C1	inconclusive: 35.5 µM [inhibitor, single point]	
O=C(Cc1ccccc1)Nc1ccc2n(c1=O)C[C@H]1C[C@@H]2CN(S(=O)(=O)c2ccc(Cl)cc2)C1	inconclusive: 12.6 µM [inhibitor, partial curve, poor fit]	
Cc1noc(C)c1-c1cc(-c2ccccc2F)cn2cncc12	active: 35.5 µM	
Oc1ccccc1Nc1nc(NCc2ccco2)c2ccccc2n1	inconclusive: 22.4 µM [inhibitor, partial curve, poor fit]	
Cc1ccccc1-c1cc(O)c2c(c1)CNCCO2	inconclusive: 39.8 µM [inhibitor, partial curve, poor fit]	
O=C(CNC(=O)c1cnccn1)NC1CCCc2c1[nH]c1ccccc21 (stereo not drawn)	inconclusive: 15.8 µM [inhibitor, single point]	
CN1C(=O)Cc2cc(S(=O)(=O)Nc3cccn4nc(C5CC5)nc34)ccc21		inactive: -41.3%
COc1ccc2cc(-c3nc(Cl)c4c5c(sc4n3)CC(C)CC5)c(=O)oc2c1 (stereo not drawn)	inconclusive: 1.58 µM [inhibitor, full curve, poor fit]	
O=C(Cn1c(=O)n(-c2cccc(Cl)c2)c(=O)c2sc3ccccc3c21)NC1CCCCC1	inconclusive: 1.12 µM [inhibitor, partial curve, poor fit]	
Cn1c(CN2CCOCC2)nnc1SCc1ccc(Br)cc1	inconclusive: 39.8 µM [inhibitor, single point]	
Cc1cc(C)cc(NC(=O)c2ccc3c(c2)N(C)C2CCCN2C3=O)c1 (stereo not drawn)	inconclusive: 28.2 µM [inhibitor, partial curve, poor fit]	
Cc1cccc(CC(=O)N2CCCCC2c2noc(COc3ccc(F)cc3)n2)c1 (stereo not drawn)	inconclusive: 1 µM [inhibitor, partial curve, poor fit]	
COc1ccc(NC(=O)Cc2c[nH]c3ncc(-c4ccccc4)cc23)cc1		inactive: -9% [at 86.2 µM]
Cc1noc(-c2ccccc2OC2CCN(C(=O)CC3CCCCC3)C2)n1 (stereo not drawn)	inconclusive: 31.6 µM [inhibitor, partial curve, poor fit]	
COCCNc1nc2cc(-c3nc(-c4cccnn4)no3)ccc2n1C		inactive: -26.1%

Structure (SMILES)	Potency	activity change, negative = inhibition
CCCOCCCNC(=O)c1c(C)noc1-c1ccccc1OC	inconclusive: 35.5 µM [inhibitor, partial curve]	
COc1ccccc1NC(=O)Cn1ccn2nc(-c3ccc(F)cc3)c(CO)c2c1=O	inconclusive: 39.8 µM [inhibitor, partial curve, poor fit]	
CCOc1ccc(C(=O)Nc2ccc3nn(-c4ccc(OC)c(Cl)c4)nc3c2)cc1	inconclusive: 1.78 µM [inhibitor, full curve, poor fit]	
CCc1ccc([S+](=O)([O-])c2nnn3c2nc(N2CCC(F)CC2)c2ccccc23)cc1	inconclusive: 100 µM [inhibitor, single point]	
CCCOc1cc(S(=O)(=O)N2CCN(CCO)CC2)ccc1Br		inactive: 5.53%
COc1ccc(C)cc1NC(=O)C1CCCN(c2ncnc3onc(-c4ccc(F)cc4)c23)C1 (stereo not drawn)		inactive: 7.53%
CN(C)c1cc(=O)c2ccnc(-c3ccc(F)c(Cl)c3)c2o1	active: 35.5 µM	
NC(=O)/C(=C\c1ccco1)NC(=O)c1ccc(Br)o1	inconclusive: 25.1 µM [inhibitor, single point]	
Cc1cc2nc(-c3cccc(NC(=O)C(C)C)c3C)oc2cc1C	inconclusive: 5.01 µM [inhibitor, partial curve, poor fit]	
CCCOc1c(Br)cc(/C=C/C(=O)c2ccc(O)c(OC)c2)cc1OC	inconclusive: 25.1 µM [inhibitor, partial curve, poor fit]	
CN(C)c1ccc(NC(=O)c2cc3cc(F)ccc3[nH]2)cc1		inactive: -8.62%
CCN1CCCc2cc(CN(CCN3CCOCC3)C(=S)Nc3ccc(C)cc3)ccc21	inconclusive: 7.94 µM [inhibitor, full curve, poor fit]	
CCN1CCN(C(=O)CCC2CCN(Cc3ccc(N(C)C)nc3)CC2)CC1	inconclusive: 25.1 µM [inhibitor, partial curve, poor fit]	
Clc1ccc2c(N/N=C/c3ccccc3)ccnc2c1		inactive: -17.2%
Cc1ccccc1N1CCCN(Cc2ccccc2OCCO)CC1	inconclusive: 25.1 µM [inhibitor, partial curve]	
O=C(C1CCOC1)N1CC(Oc2cccc(-c3nc(-c4ccccc4)no3)c2)C1 (stereo not drawn)	inconclusive: 39.8 µM [inhibitor, single point]	
